This note sets out measurements from PMC4336329 (PLoS ONE, 2015).

Out of some 310,000 compounds screened, about 14,000 (4.5%) showed an effect of 50% or more. Effects have a minus sign here. The list shows a part of the results.
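Also: peak tail current of the secondary pulse compared with the same well before compound.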

The assay deals with human ether-à-go-go-related gene (hERG) potassium channel (human, UniProt Q12809). As to the kind of experiment: primary screen, population patch clamp on CHO cells stably expressing hERG.
Chain of human ether-à-go-go-related gene (hERG) potassium channel (Q12809 whole entry, looked up): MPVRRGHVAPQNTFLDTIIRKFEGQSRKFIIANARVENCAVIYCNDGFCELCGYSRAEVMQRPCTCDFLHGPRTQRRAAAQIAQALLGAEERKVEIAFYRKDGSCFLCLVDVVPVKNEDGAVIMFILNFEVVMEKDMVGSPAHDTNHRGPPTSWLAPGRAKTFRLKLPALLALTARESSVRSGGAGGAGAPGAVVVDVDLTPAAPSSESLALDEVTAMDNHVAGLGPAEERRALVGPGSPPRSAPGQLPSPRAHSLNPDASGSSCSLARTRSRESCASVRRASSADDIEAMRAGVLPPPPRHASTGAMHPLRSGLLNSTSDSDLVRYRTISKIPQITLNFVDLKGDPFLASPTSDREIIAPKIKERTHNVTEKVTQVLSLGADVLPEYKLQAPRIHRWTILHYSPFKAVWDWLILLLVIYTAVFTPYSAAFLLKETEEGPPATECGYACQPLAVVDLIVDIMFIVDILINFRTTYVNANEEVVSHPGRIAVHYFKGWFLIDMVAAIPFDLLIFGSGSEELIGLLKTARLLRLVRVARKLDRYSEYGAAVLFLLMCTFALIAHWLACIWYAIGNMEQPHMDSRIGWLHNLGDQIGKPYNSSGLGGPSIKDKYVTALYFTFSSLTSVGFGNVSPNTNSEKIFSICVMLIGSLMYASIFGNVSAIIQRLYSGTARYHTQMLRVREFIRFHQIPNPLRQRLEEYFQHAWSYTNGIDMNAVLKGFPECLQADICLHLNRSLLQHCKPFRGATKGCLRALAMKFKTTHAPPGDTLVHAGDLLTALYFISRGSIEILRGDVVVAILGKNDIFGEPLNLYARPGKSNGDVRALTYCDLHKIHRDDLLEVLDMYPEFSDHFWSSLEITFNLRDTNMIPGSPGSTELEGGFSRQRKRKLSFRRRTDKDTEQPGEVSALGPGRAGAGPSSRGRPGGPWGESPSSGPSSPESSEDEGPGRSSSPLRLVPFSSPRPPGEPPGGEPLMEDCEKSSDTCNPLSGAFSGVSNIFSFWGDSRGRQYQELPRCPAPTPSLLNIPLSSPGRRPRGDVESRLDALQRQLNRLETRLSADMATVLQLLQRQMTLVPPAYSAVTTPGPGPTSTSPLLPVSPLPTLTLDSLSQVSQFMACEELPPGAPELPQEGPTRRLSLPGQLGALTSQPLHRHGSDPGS
`c1ccc(CCc2nc(-c3ccc(-n4cccc4)cc3)no2)cc1`: the “hERG current change (%, negative = inhibition) at 10uM” value was found to be 2.61%.
Turning to `O=c1c2ccccc2c(-c2ccc(Cl)cc2)nn1-c1ccccc1`, the “hERG current change (%, negative = inhibition) at 10uM” value was -1.46%.
For `CC12CCCCC1N(O)C(=O)C(=O)N2O` (stereo not drawn), the “hERG current change (%, negative = inhibition) at 10uM” value came to 8.8%.
On to `COc1cc(C(=O)O/N=C2\CCCc3c2ccc(OC)c3[N+](=O)[O-])cc(OC)c1OC`, for which the “hERG current change (%, negative = inhibition) at 10uM” value is 2.98%.
Then `COc1ccc(-c2nnc(SCc3nnc(-c4cccs4)o3)n2CC2CCCO2)cc1` (stereo not drawn), with -32%; and `Cc1oc2ccc(O)cc2c1C(=O)c1ccc(Br)cc1`, with 7.84%.
Consider `COc1ccccc1C(=O)CN1C(=O)NC2(CCc3ccccc32)C1=O` (stereo not drawn), for which the “hERG current change (%, negative = inhibition) at 10uM” value is reported as -9.64%.
To `O=C(COC(=O)CCN1C(=O)C2CC=CCC2C1=O)NCCc1ccccc1` (stereo not drawn) belongs -22.4%.
On to `N#Cc1ccccc1S(=O)(=O)N1CCN(C(=O)[C@H](Cc2ccccc2)NC(=O)c2ccco2)CC1`, for which the “hERG current change (%, negative = inhibition) at 10uM” value is recorded as -19.5%.
For `O=[N+]([O-])c1cccc(Nc2c([N+](=O)[O-])ccc3nonc23)c1`, the “hERG current change (%, negative = inhibition) at 10uM” value was found to be 7.15%.
As to `COc1ccc(CN2C(=O)c3cccnc3C2=O)cc1S(=O)(=O)NC1CCCCC1`, the “hERG current change (%, negative = inhibition) at 10uM” value was 14.4%.
On to `CC(C)COc1ccc(C(=O)NCc2ccco2)cc1`, for which the “hERG current change (%, negative = inhibition) at 10uM” value is on record as -4.07%.
Then `Nc1ccccc1C(=O)N1CCCC1`, with 9.99%.
With `Cc1ccc(CNC(=O)CCc2ccccc2)cc1`, the “hERG current change (%, negative = inhibition) at 10uM” value was 0.931%.
Take `Cc1c(CCO)c(=O)n(-c2ccccc2)n1S(=O)(=O)c1ccc(Cl)cc1`: the “hERG current change (%, negative = inhibition) at 10uM” value was 19.9%.
`CCCCNC(=O)c1onc(CSc2cccc(Cl)c2)c1C(=O)O`: the “hERG current change (%, negative = inhibition) at 10uM” value is reported as -44.8%.
For `Cc1ccc(Nc2nnc(SC(C)C(=O)Nc3c(C)n(C)n(-c4ccccc4)c3=O)s2)cc1` (stereo not drawn), the “hERG current change (%, negative = inhibition) at 10uM” value is -3.6%.
As for `Cc1cc(NC(=O)C(C)SCC(=O)Nc2cc(Cl)ccc2N2CCN(C)CC2)no1` (stereo not drawn), the “hERG current change (%, negative = inhibition) at 10uM” value was -33.4%.
On to `CCOC(=O)Cc1csc(SCC(=O)NC2CCC(C)CC2)n1` (stereo not drawn), for which the “hERG current change (%, negative = inhibition) at 10uM” value was -6.84%.
Then `CC(=O)Nc1nc(=O)c2ccccc2s1`, with 1.39%.
As to `CCCC(=O)NC(c1ccc(C)cc1)c1ccc2cccnc2c1O` (stereo not drawn), the “hERG current change (%, negative = inhibition) at 10uM” value was -6.24%.
Regarding `Cc1ccc(-n2ncc3c2CC(C)(C)CC3NC(=O)CCn2cncn2)cc1` (stereo not drawn), the “hERG current change (%, negative = inhibition) at 10uM” value was -76.8%.
In the case of `O=C(c1ccccc1Sc1ccc([N+](=O)[O-])cc1)N1CCCCC1`, the “hERG current change (%, negative = inhibition) at 10uM” value was -39.5%.
Consider `CCOC(=O)c1csc(NC(=O)CSc2nnc(C3CC3)n2C)n1`, for which the “hERG current change (%, negative = inhibition) at 10uM” value came out at 11%.
In the case of `COc1ccc2c(CC(=O)Nc3ccc(OC)c(S(=O)(=O)N4CCOCC4)c3)coc2c1`, the “hERG current change (%, negative = inhibition) at 10uM” value was -9.71%.
`CC(C)(C)c1ccc(-c2n[nH]c(=S)n2-c2ccccc2)cc1`: the “hERG current change (%, negative = inhibition) at 10uM” value came to 22.8%.
In the case of `COc1ccc(Cl)cc1NC(=O)CC1S/C(=N/N=C2CCCCCC2)NC1=O` (stereo not drawn), the “hERG current change (%, negative = inhibition) at 10uM” value turned out to be 4.5%.
On to `COc1cccc(NC(=O)CN(C)CC(=O)c2c(C)[nH]c3ccccc23)c1`, for which the “hERG current change (%, negative = inhibition) at 10uM” value is on record as -11.9%.
Consider `CCc1ccc(NC(=O)CSc2nnc(-c3cnccn3)n2Cc2ccco2)cc1`, for which the “hERG current change (%, negative = inhibition) at 10uM” value is -10.3%.
`Nc1[nH]nc2nc(-c3ccccc3)[nH]c(=O)c12`: the “hERG current change (%, negative = inhibition) at 10uM” value is on record as 19.2%.
With `C/C(=C\CCC1(C)C2CC3C(C2)C31C)C(=O)O` (stereo not drawn), the “hERG current change (%, negative = inhibition) at 10uM” value is reported as 9.71%.
As for `CCN(CC)c1ccc(NC(=O)CCCCC(=O)Nc2ccc(N(CC)CC)cc2)cc1`, the “hERG current change (%, negative = inhibition) at 10uM” value is given as 4.87%.
As for `COc1ccc(S(=O)(=O)n2nc(OC(=O)c3c(-c4ccccc4Cl)noc3C)cc2N)cc1`, the “hERG current change (%, negative = inhibition) at 10uM” value was determined as 1.98%.
On to `CCCCCCn1cc(C(=O)O)c(=O)c2ccccc21`, for which the “hERG current change (%, negative = inhibition) at 10uM” value is given as -75.8%.
To `O=C(CSCc1ccc(Cl)cc1)NCC1CCCO1` (stereo not drawn) belongs -11.5%.
On to `CC(C)C(Nc1ncnc2c1oc1ccccc12)C(=O)O` (stereo not drawn), for which the “hERG current change (%, negative = inhibition) at 10uM” value is -0.0759%.
To `COc1ccc(C)cc1NC(=O)CN(Cc1nnc(-c2ccc(Cl)cc2)o1)C1CCCC1` belongs -10%.
Then `CCOC(=O)c1c(SC)[nH]c2c(Cl)cccc2c1=O`, with 13%.
As to `Cl.c1ccc(Nc2nc(NCc3ccco3)c3ccccc3n2)cc1`, the “hERG current change (%, negative = inhibition) at 10uM” value is reported as -71%.
As to `CCOC(=O)C1CNc2cc(S(=O)(=O)CC)ccc2O1` (stereo not drawn), the “hERG current change (%, negative = inhibition) at 10uM” value is recorded as -5.23%.
As for `CCN(CC(=O)NCc1ccc(Cl)cc1)C(=O)CNS(=O)(=O)c1ccc(NC(C)=O)cc1`, the “hERG current change (%, negative = inhibition) at 10uM” value is on record as 32%.
Take `Cc1ccc(S(=O)(=O)N(Cc2ccccc2Cl)C(=O)N2CCN(C)CC2)cc1`: the “hERG current change (%, negative = inhibition) at 10uM” value amounted to 11.3%.
As to `COc1cc(C)c(Cl)cc1S(=O)(=O)NCCN1CCOCC1`, the “hERG current change (%, negative = inhibition) at 10uM” value turned out to be 15.9%.
Consider `COC(=O)c1ccc(CNC(=O)c2ccc3c(c2)OCCO3)cc1`, for which the “hERG current change (%, negative = inhibition) at 10uM” value was determined as 21.2%.
To `COC(=O)c1c(NC(=O)CSc2ncnc3c2cnn3-c2ccccc2Cl)sc2c1CCCC2` belongs 13.5%.
